Hit rate of the full screen: of about 310,000 compounds, about 2,200 (0.71%) showed an effect of 50% or more. Effects have a minus sign here. Some of the results follow.
target: human ether-à-go-go-related gene (hERG) potassium channel (human, UniProt Q12809); test: primary screen, population patch clamp on CHO cells stably expressing hERG
Sequence (Q12809 whole entry, looked up): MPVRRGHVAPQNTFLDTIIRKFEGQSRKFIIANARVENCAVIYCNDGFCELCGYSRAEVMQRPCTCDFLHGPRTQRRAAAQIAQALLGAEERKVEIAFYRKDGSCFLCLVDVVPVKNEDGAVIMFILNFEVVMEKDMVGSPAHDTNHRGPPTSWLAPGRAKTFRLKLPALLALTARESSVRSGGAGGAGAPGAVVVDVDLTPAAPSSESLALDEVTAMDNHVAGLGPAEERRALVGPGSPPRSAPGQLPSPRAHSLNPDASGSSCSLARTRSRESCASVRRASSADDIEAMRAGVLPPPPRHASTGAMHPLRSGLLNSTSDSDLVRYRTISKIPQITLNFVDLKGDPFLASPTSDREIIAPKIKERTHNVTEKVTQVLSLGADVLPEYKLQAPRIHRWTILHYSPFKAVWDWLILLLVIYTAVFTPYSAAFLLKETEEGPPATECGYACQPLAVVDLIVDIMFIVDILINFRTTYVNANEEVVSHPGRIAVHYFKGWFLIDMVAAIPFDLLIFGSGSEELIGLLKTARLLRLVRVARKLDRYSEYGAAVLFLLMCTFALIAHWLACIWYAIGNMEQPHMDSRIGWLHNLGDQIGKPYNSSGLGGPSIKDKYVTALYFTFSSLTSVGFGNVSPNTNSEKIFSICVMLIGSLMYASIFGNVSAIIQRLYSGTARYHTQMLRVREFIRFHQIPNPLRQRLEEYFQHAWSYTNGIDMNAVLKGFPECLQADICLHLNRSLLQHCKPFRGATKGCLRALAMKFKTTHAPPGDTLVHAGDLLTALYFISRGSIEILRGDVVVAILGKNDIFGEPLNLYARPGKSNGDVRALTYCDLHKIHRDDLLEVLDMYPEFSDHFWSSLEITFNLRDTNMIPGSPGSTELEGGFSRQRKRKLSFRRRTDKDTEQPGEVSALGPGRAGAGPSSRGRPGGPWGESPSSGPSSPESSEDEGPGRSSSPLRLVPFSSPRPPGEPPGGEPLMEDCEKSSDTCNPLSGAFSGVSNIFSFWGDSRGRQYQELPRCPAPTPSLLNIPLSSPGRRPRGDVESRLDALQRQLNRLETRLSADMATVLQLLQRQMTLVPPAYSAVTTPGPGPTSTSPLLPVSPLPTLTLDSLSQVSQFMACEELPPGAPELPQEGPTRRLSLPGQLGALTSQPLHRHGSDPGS

SMILES	hERG current change (%, negative = inhibition) at 1uM [%]
CCOc1ccc2nc(-c3ccccc3)nc(SCC(=O)OC)c2c1	16.9
Cc1cc(C)cc(OCC(O)CN2CCN(Cc3ccc4c(c3)OCO4)CC2)c1.Cl (centres unmarked)	-67.9
O=C(Nc1cc(S(=O)(=O)Nc2ccc(Cl)cc2)ccc1N1CCCCC1)c1ccc(F)cc1Cl	9.08
O=C(Nc1ccc2c(c1)CCC2)c1cccc(S(=O)(=O)N2CCN(c3ccccc3)CC2)c1	-2.54
CCNc1nnc(-c2ccc(C)cc2)o1	9.37
CCN(CC)c1nc2c(s1)C(=O)NCCC2	-0.411
CCN(CC)CCn1c(=N)n(CC(O)c2ccc(OC)c(OC)c2)c2ccccc21.Cl (centres unmarked)	8.84
CCc1ccc(N2CC(C(=O)Nc3nc4ccc(S(C)(=O)=O)cc4s3)CC2=O)cc1 (centres unmarked)	2.86
C=CCn1c(Sc2ccccc2)nc2c1c(=O)[nH]c(=O)n2C	3.05
Cc1ccc(/C=C2\SC(=O)N(CCC(=O)N3CCN(C)CC3)C2=O)cc1	8.41
COc1ccc(C(=O)CSc2nnc(COc3ccccc3)n2Cc2ccco2)cc1	-16.8
COc1ccc(-c2nc(CSCC(=O)NCCCN3CCCC3=O)c(C)o2)cc1	9.82
COCCNC(=O)c1nn2cccnc2c1Cl	-0.365
CC(C)[C@H](NC(=O)c1ccc(F)cc1)C(=O)NC1=NCCS1	15.6
COc1cccc(CN2CC(C(=O)N(C)Cc3[nH]c4ccccc4c3C)CCC2=O)c1 (centres unmarked)	7.06
COc1ccc(CCNC(=O)COC(=O)c2ccc([N+](=O)[O-])o2)cc1	8.38
Brc1ccc(Oc2ccc(Br)cc2Br)c(Br)c1	12
CCOC(=O)C1CCN(c2nc(C)nc3c2oc2ccccc23)CC1.Cl	5.64
CCCNC(=O)COc1coc(CN2CCN(c3cccc(Cl)c3)CC2)cc1=O	4.74
O=C(NCCc1ccccn1)/C(=C/c1ccco1)NC(=O)c1ccccc1	5.6
COc1ccc(S(=O)(=O)N2CC3C4C=CC(C4)C3C2)cc1 (centres unmarked)	11.4
COc1ccc(Br)cc1S(=O)(=O)NCc1ccccn1	4.7
CC(CSc1nnnn1-c1ccccc1)Cn1c(N2CCCC2)nc2c1c(=O)[nH]c(=O)n2C (centres unmarked)	-15.8

SMILES	hERG current change (%, negative = inhibition) at 1uM [%]
CSc1ncc2c(=O)[nH]c(-c3ccccc3)nc2n1	14.2
CCOC(=O)CN(C(=O)COc1nc(-c2ccccc2)cc(C)c1C#N)c1ccc(C)cc1	8.45
O=C(Oc1ccc(Br)cc1C(=S)N1CCOCC1)c1ccccc1	-0.346
CC(C)(C)Cc1cc(N)on1	-2.6
CCC(=O)Nc1cc(C(=O)N2CCC3(CC2)OCCO3)ccc1S(=O)(=O)c1ccc(C)cc1	8.68
Cc1ccc(NC(=O)C2(S(=O)(=O)c3ccc(C)cc3)CC2)cc1	7.6
Cc1csc(NC(=O)CSc2ccc([N+](=O)[O-])cn2)n1	2.66
Cc1cc(NC(=O)c2ccc(NC(=O)C(C)Oc3ccccc3)cc2)no1 (centres unmarked)	11
O=C(O)CCSc1ccccn1	10.1
CCCCC(=O)Nc1ccc(C(=O)Nc2nnc(COC)s2)cc1	-3.54
Cc1cccc(C)c1NC(=O)CN(C)CC(=O)Nc1ccc(F)c(Cl)c1	3.59
Cc1sc2nc(SCC(=O)N3CCCC3)[nH]c(=O)c2c1C	4.44
Cc1noc(C)c1S(=O)(=O)N1CCC(C(=O)NCCN2CCC(C)CC2)CC1	11.8
COc1ccc(C2CC(c3cccc(Cl)c3)n3nc(N)nc3N2)cc1 (centres unmarked)	5.97
COc1ccc(CN/C(C)=C(/C#N)C(N)=O)cc1OC	3.28
C[C@H](OC(=O)NCc1ccc(C(F)(F)F)cc1)[C@@H]1O[C@@]2(C)CCC[C@@H]1O2	12.3
COc1ccc(CNC(=O)CSc2cccc3cccnc23)cc1	11.6
CN(C)S(=O)(=O)c1ccc(NC(=O)COC(=O)C2COc3ccccc3O2)cc1 (centres unmarked)	6.99
Cc1cc(SCC(=O)N/N=C/c2ccc(O)c(O)c2)c(C)cc1Br	10.9
NC(=O)CN1C(=O)C(=O)N(Cc2ccccc2)C1=O	13.4
Cc1cc(C)c(S(=O)(=O)NCc2ccccn2)c(C)c1	4.51
COc1ccc(N2CCN(S(=O)(=O)c3ccc4c(c3)CC(C)N4C(=O)C3CC3)CC2)cc1 (centres unmarked)	23.4
CCN(CC)S(=O)(=O)c1ccc(S(=O)(=O)Nc2ccc(C(=O)N3CCCC3)cc2)cc1	-5.36

SMILES	hERG current change (%, negative = inhibition) at 1uM [%]
COc1cc(C(=O)NCCCN2CCCC2=O)cc(Br)c1OCc1ccccc1	-33.2
COc1ccc(CCC(=O)NCc2cn3ccsc3n2)cc1	13.1
N#CC1=C(N)C2=C(N3CCCCC3)CCCC2C1(C#N)C#N (centres unmarked)	-3.03
O=C(CCSc1nc(-c2ccco2)cc(C(F)(F)F)n1)N1CCCc2ccccc21	9.09
O=C(O)C(=O)O.c1cc2nc(C34CC5CC(CC(C5)C3)C4)[nH]c2cn1	3.25
Cc1cc(-c2ccccc2)nc2cc(C(=O)OC(C)C)nn12	15.4
N#Cc1c(-c2ccccc2)cc(-c2cccs2)nc1SCC(=O)O	-3.04
COc1ccc(N(C(=O)c2ccncc2)S(=O)(=O)c2ccc(F)cc2)cc1	16.6
CS(=O)(=O)Nc1ccc(C(=O)NCc2ccco2)cc1	16.3
C/C(=N/NC(=O)CN1CCN(S(=O)(=O)c2ccc(Br)cc2)CC1)c1ccco1	-17.3
CCOC(=O)NC(=O)CSc1ccc2ccccc2n1	15.6
Cc1ccc(NC(=S)C2=C(O)c3ccccc3N(C)S2(=O)=O)cc1	8.11
CN(CC(=O)Nc1ccc(F)cc1)C(=O)Cn1nnc(-c2ccccc2)n1	7.23
Cc1ccc(F)cc1N=Cc1c(O)c2ccccc2oc1=O	13.4
CC(=O)Nc1cc2nc(C)n(Cc3ccccc3)c2nc1C	3.72
CCC(c1ccccc1)c1nc(-c2ccccn2)no1 (centres unmarked)	14.8
CC(C)(C)c1ccc(C(=O)NC(=S)N2CCCCCC2)cc1	5.47
CCCC1=NN(c2ccc([N+](=O)[O-])cc2)C(=O)/C1=C\N(C)C	11.6
O=C(Cn1c(=O)n(Cc2ccco2)c(=O)c2c3c(sc21)CCCCC3)Nc1ccccc1	-3.13
Cc1ccc2c(c1)N(Cc1cccc(C#N)c1)C=NS2(=O)=O	13.8
O=C(Cc1cccs1)Nc1cccc(C(=O)Nc2ccco2)c1	3.06
S=c1[nH]nc(-c2cc(-c3ccccc3)n[nH]2)n1/N=C/c1cccc(Cl)c1	20.6
Cc1cc(N)n(-c2ccc([N+](=O)[O-])cc2)n1	2.87

SMILES	hERG current change (%, negative = inhibition) at 1uM [%]
CCOC(=O)c1c(NC(=O)C2CCN(S(=O)(=O)c3cccs3)CC2)sc(C)c1C	3.89
COC(=O)c1ccc[n+](CC(=O)c2ccc(Br)cc2)c1.[Cl-]	-8.7
COc1ccccc1NC(=S)NNC(=O)c1ccccc1Br	2.87
N#Cc1c(NC(=O)c2cccc(S(=O)(=O)Nc3ccc(C(=O)O)cc3)c2)sc2c1CCCC2	-1.13
CCc1ccc(/C=N/N2CCN(c3ccccn3)CC2)cc1	-0.434
Cc1cc(C(=O)NNc2ccc(C(C)C)cc2)n(C(C)(C)C)n1	11.6
CCC(C)NCCCOc1ccc(Cl)cc1C(C)(C)C.O=C(O)C(=O)O (centres unmarked)	15.2
COc1ccc(NC(=O)Cc2ccc(Cl)cc2)cc1NC(=O)c1ccco1	4.7
CC1(CC(=O)N/N=C/c2ccc(-c3cccc(C(F)(F)F)c3)o2)OCCO1	1.45
COc1ccc(CC(=O)NCc2ccc(F)cc2)cc1S(=O)(=O)N1CCOCC1	4.78
CC(=O)Nc1cccc(OCCCNS(=O)(=O)c2ccc(C#N)cc2)c1	3.85
COc1nc(C)ccc1-c1noc(-c2cccnc2)n1	5.05
COc1cccc(CC(=O)OCC(=O)NC2(C#N)CCCC2)c1	2.44
CN(C(=O)C1CCCCC1)C1(C)CCS(=O)(=O)C1 (centres unmarked)	3.96
O=C1CN(C(=O)COC(=O)c2cnc(Cl)c(Cl)c2)c2ccccc2N1	12
Oc1ccc(CNc2ccccc2F)c2cccnc12	15.4
COc1ccc(NS(=O)(=O)c2cccc(C(=O)N(C)CC(=O)Nc3ccc(C)cc3)c2)cc1	-1.97
COC(=O)C1C(=O)C=C(Nc2ccc(F)cc2)CC1c1ccc(OC)cc1 (centres unmarked)	9.98
Cc1cccc(N=C2N=C(N)c3ccccc32)c1	-8.5
COC(=O)C1=C(CSCc2ccccc2)NC(=O)NC1c1cc(C)ccc1C (centres unmarked)	-3.8

— publication PMC4336329 (PLoS ONE, 2015)
